These are yes or no findings as the source states them, for the method shown. For part of these data: In cells and extracts the contact can be indirect. Some results given as binding are weak or reduced against the parent protein; the word gives no strength. For part of these data: Sequences can lack the tags named with a protein. Values belong to the substance of their own block, whether it stands above or below them.
Assays:
[1] = target: heterogeneous nuclear ribonucleoprotein K (hnRNPK), endogenous in brain (rat (endogenous in brain)) (UniProt P61980); experiment: co-IP; endogenous proteins; hnRNPK antibody on magnetic microbeads, brain lysate and synaptosomal fraction; immunoblot with anti-Abi-1; control with unspecific IgG
[2] = target: hnRNPK-K3-GFP (aa337–464) (UniProt P61978); experiment: co-IP; lysate of cotransfected Cos7 cells; GFP fusion precipitated with anti-GFP microbeads; immunoblot with anti-Myc (Fig. 1D-II) or anti-hnRNPK (Fig. 1D-III)
[3] = target: hnRNPK-K2-GFP (aa150–337) (UniProt P61978); experiment: as above
hnRNPK-K1-GFP (aa1–149) = hnRNPK-K1-GFP (aa1–149) (UniProt P61978); experiment: as above
[4] = target: Abi-1 (full coding sequence) fused to the GAL4 DNA binding domain (UniProt Q9QZM5); experiment: two-hybrid; Abi-1 full coding sequence on the GAL4 DNA binding domain (pAS2-1) as bait, human fetal brain cDNA library in pACT2 as prey; yeast strains Y187 and AH109; growth without histidine and X-gal filter-lift; clones retested after re-transformation
[5] = target: Abi-1-Myc (aa1–476; full-size Abi-1) (UniProt Q9QZM5); experiment: co-IP; lysate of cotransfected Cos7 cells; Abi-1-Myc immobilised on anti-Myc microbeads on a column; immunoblot with anti-GFP
[6] = target: T1, AbiΔSH3-GFP (Abi-1 without the C-terminal SH3-domain, aa1–416) (UniProt Q9QZM5); experiment: co-IP; lysate of cotransfected Cos7 cells; GFP fusion precipitated with anti-GFP microbeads; immunoblot with anti-Myc (Fig. 1D-II) or anti-hnRNPK (Fig. 1D-III)
T1 sequence: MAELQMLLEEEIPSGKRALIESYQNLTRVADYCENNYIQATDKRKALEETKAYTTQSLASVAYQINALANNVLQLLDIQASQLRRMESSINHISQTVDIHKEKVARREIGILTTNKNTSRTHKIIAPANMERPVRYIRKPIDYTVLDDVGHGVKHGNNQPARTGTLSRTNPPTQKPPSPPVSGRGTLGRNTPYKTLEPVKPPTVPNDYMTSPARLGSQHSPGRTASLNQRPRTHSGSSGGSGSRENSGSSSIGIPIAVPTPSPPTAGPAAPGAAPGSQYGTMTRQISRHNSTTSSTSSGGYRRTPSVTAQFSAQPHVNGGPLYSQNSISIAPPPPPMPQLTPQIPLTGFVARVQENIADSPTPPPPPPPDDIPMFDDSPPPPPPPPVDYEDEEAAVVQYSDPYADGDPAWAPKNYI

The chains behind the UniProt entries cited, without tags or fusion partners. Where a name states a change or a piece, a line headed by the entry shows the natural chain unless it says otherwise. A line that says so, or that is headed by a name, gives the form on record, which may keep a tag or linker. Residues count along the entry.
hnRNPK-K2-GFP (aa150–337) (P61978, residues 150-337): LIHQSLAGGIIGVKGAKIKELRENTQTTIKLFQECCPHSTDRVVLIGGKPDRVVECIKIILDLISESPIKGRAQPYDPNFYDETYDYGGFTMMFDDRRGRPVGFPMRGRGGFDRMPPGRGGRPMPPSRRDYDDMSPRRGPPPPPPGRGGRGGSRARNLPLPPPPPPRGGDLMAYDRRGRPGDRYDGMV
hnRNPK-K3-GFP (aa337–464) (P61978-2, form named): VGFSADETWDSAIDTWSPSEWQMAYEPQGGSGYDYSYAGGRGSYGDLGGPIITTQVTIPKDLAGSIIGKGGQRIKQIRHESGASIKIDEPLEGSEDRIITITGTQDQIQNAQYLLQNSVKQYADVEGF
hnRNPK prey clone aa248–464 (P61978-2, form named): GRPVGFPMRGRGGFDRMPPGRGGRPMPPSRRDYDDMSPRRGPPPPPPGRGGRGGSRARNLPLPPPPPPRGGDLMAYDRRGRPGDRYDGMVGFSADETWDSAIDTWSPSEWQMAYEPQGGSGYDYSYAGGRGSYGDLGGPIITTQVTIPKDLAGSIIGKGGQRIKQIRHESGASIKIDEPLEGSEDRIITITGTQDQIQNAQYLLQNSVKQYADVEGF
hnRNPK prey clone aa267–464 (P61978-2, form named): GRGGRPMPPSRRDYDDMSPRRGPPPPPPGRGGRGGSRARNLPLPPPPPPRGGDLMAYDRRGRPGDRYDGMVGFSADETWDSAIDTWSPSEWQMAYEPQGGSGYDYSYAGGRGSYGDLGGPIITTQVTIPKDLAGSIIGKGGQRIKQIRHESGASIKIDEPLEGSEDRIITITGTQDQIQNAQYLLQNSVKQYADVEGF

[7] = target: T2, AbiSH3-GFP (Abi-1 SH3 domain, aa417–476) (UniProt Q9QZM5); experiment: as above
T2 sequence: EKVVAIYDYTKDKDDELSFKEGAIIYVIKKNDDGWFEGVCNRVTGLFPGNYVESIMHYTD

Substance: Abi-1-Myc (aa1–476; full-size Abi-1) (from UniProt Q9QZM5 1-476)
- binding [2]: no binding
- binding [3]: binds
- binding (hnRNPK-K1-GFP (aa1–149)): no binding

Substance: hnRNPK prey clone aa248–464 (from UniProt P61978-2 248-464) (domain or fragment)
- binding [4]: binds

Substance: hnRNPK prey clone aa267–464 (from UniProt P61978-2 267-464) (domain or fragment)
- binding [4]: binds

Results, then the substance that gave them:

- binding [1]: binds
Substance: Abelson-interacting protein 1 (Abi-1), endogenous in brain (from UniProt Q9QZM5 1-476)

- binding [5]: binds
Substance: hnRNPK-full-GFP (aa1–464; full-size hnRNPK fused to GFP) (from UniProt P61978-2 1-464)

- binding [6]: no binding
- binding [7]: binds
Substance: hnRNPK-full-Myc (aa1–464; full-size hnRNPK fused to Myc) (from UniProt P61978-2 1-464)

Reference: publication PMC3216941
